The source of these data is a collection of fitness landscapes (doi:10.1016/j.celrep.2020.107928).

B1: Caulobacter ParB omega fusion; a variant is named by its letters at X, in order, B8GW30 (parent)
chain: MESVVVGEPGMSEGRRGLGRGLSALLGEVDAAPAQAPGEQLGGSREAPIEILQRNPDQPRRTFREEDLEDLSNSIREKGVLQPILVRPSPDTAGEYQIVAGERAWRAAQRAGLKTVPIMVRELDDLAVLEIGIIENVQRADLNVLEEALSYKVLMEKFERTQENIAQTIGKSXSHVANXMRLLXLPDEVQSYLVSGELTAXHARAIAAAADPVALAKQIIEGGLSVRETEALARKAPNLSAGKSKGGRPPRVKDTDTQALESDLSSVLGLDVSIDHRGSTGTLTITYATLEQLDDLCNRLTRGI

The full ranking holds about 81,000 sequences; the median of “one-hybrid fitness for binding NBS DNA” is about -0.1, and the highest 2% start at about 0.36. This is one part of the list.

In this test the parent is B1. As to the kind of experiment: one-hybrid fitness for binding NBS DNA (the Noc-binding site; scaled: cognate 1, non-cognate 0); higher = stronger binding. As to conditions: with NBS DNA site. The method, boiled down: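 Bacterial one-hybrid selection in E. coli USO rpoZ- hisB- pyrF- with a HIS3 reporter carrying the site 19 bp from the promoter, screening Caulobacter ParB libraries with four specificity codons randomised (NNS). Cells grew 48 hours at 37°C on M9-minus-histidine plus 0.1 mM IPTG and 5 mM 3-AT. Plasmids before and after selection were Illumina-sequenced, three replicate libraries pooled, and variants under 10 reads dropped. Fitness is the log change in variant-to-wild-type read ratio, rescaled to cognate 1, non-cognate 0.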
In the case of CNAL, the “one-hybrid fitness for binding NBS DNA” value was at most 0.2.

As to AAVL, the “one-hybrid fitness for binding NBS DNA” value is at most 0.2.

As to IAHR, the “one-hybrid fitness for binding NBS DNA” value was at most 0.2.

Consider TPAN, for which the “one-hybrid fitness for binding NBS DNA” value was at most 0.2.

With QTSL, the “one-hybrid fitness for binding NBS DNA” value is at most 0.2.

For the variant RHGK, the “one-hybrid fitness for binding NBS DNA” value was at most 0.2.

On to QMYC, for which the “one-hybrid fitness for binding NBS DNA” value was at most 0.2.

With WYTV, the “one-hybrid fitness for binding NBS DNA” value is at most 0.2.

With ACTA, the “one-hybrid fitness for binding NBS DNA” value was at most 0.2.

In the case of SSMK, the “one-hybrid fitness for binding NBS DNA” value is at most 0.2.

As for PWEG, the “one-hybrid fitness for binding NBS DNA” value was at most 0.2.

With ERFN, the “one-hybrid fitness for binding NBS DNA” value was at most 0.2.

With HYAF, the “one-hybrid fitness for binding NBS DNA” value was at most 0.2.

For the variant SDTA, the “one-hybrid fitness for binding NBS DNA” value was at most 0.2.

TQVL: the “one-hybrid fitness for binding NBS DNA” value was at most 0.2.

Consider RVPY, for which the “one-hybrid fitness for binding NBS DNA” value was at most 0.2.

On to KAHS, for which the “one-hybrid fitness for binding NBS DNA” value was at most 0.2.

Consider YHIG, for which the “one-hybrid fitness for binding NBS DNA” value is at most 0.2.

Take WTGV: the “one-hybrid fitness for binding NBS DNA” value is at most 0.2.

Regarding NTFG, the “one-hybrid fitness for binding NBS DNA” value was at most 0.2.

As for ALYA, the “one-hybrid fitness for binding NBS DNA” value was at most 0.2.

Consider STDT, for which the “one-hybrid fitness for binding NBS DNA” value was at most 0.2.

LYFV: the “one-hybrid fitness for binding NBS DNA” value was at most 0.2.

Take RAFS: the “one-hybrid fitness for binding NBS DNA” value was found to be 0.238.

As for HYKV, the “one-hybrid fitness for binding NBS DNA” value was at most 0.2.

Regarding WLRP, the “one-hybrid fitness for binding NBS DNA” value was at most 0.2.

Turning to TCHW, the “one-hybrid fitness for binding NBS DNA” value was at most 0.2.

In the case of AVVT, the “one-hybrid fitness for binding NBS DNA” value is at most 0.2.

Turning to QVPA, the “one-hybrid fitness for binding NBS DNA” value was at most 0.2.

For QKIV, the “one-hybrid fitness for binding NBS DNA” value was at most 0.2.

On to SWLE, for which the “one-hybrid fitness for binding NBS DNA” value was at most 0.2.

Take CMDS: the “one-hybrid fitness for binding NBS DNA” value was at most 0.2.

CMHR: the “one-hybrid fitness for binding NBS DNA” value is at most 0.2.

For LPLC, the “one-hybrid fitness for binding NBS DNA” value is at most 0.2.

As for ETGT, the “one-hybrid fitness for binding NBS DNA” value was at most 0.2.

With VFMR, the “one-hybrid fitness for binding NBS DNA” value is at most 0.2.

In the case of VWLR, the “one-hybrid fitness for binding NBS DNA” value was at most 0.2.

Turning to ANIT, the “one-hybrid fitness for binding NBS DNA” value is at most 0.2.

With QSAS, the “one-hybrid fitness for binding NBS DNA” value was determined as 0.356.

On to SKHE, for which the “one-hybrid fitness for binding NBS DNA” value was at most 0.2.

As to YQTL, the “one-hybrid fitness for binding NBS DNA” value was at most 0.2.

Regarding WYDS, the “one-hybrid fitness for binding NBS DNA” value was at most 0.2.

Take VNVL: the “one-hybrid fitness for binding NBS DNA” value is at most 0.2.

HDRK: the “one-hybrid fitness for binding NBS DNA” value is at most 0.2.

In the case of LTSK, the “one-hybrid fitness for binding NBS DNA” value is at most 0.2.

WIAV: the “one-hybrid fitness for binding NBS DNA” value is at most 0.2.

In the case of PSSH, the “one-hybrid fitness for binding NBS DNA” value was at most 0.2.

As to QSAR, the “one-hybrid fitness for binding NBS DNA” value was 0.526.

Turning to ANSM, the “one-hybrid fitness for binding NBS DNA” value is at most 0.2.

Turning to TETP, the “one-hybrid fitness for binding NBS DNA” value was at most 0.2.

Consider LQGR, for which the “one-hybrid fitness for binding NBS DNA” value was at most 0.2.

As to GPFG, the “one-hybrid fitness for binding NBS DNA” value is at most 0.2.

As to ERYA, the “one-hybrid fitness for binding NBS DNA” value was at most 0.2.

With CCQT, the “one-hybrid fitness for binding NBS DNA” value is at most 0.2.

On to TYIN, for which the “one-hybrid fitness for binding NBS DNA” value was at most 0.2.

Consider DYTT, for which the “one-hybrid fitness for binding NBS DNA” value was at most 0.2.

In the case of PWAE, the “one-hybrid fitness for binding NBS DNA” value was at most 0.2.

For the variant NVRG, the “one-hybrid fitness for binding NBS DNA” value is at most 0.2.

Consider QIHE, for which the “one-hybrid fitness for binding NBS DNA” value was at most 0.2.

With YQDA, the “one-hybrid fitness for binding NBS DNA” value was at most 0.2.

Regarding WHVR, the “one-hybrid fitness for binding NBS DNA” value was at most 0.2.

For GFVI, the “one-hybrid fitness for binding NBS DNA” value is at most 0.2.

EARG: the “one-hybrid fitness for binding NBS DNA” value is at most 0.2.

On to PSID, for which the “one-hybrid fitness for binding NBS DNA” value was at most 0.2.

In the case of VLIM, the “one-hybrid fitness for binding NBS DNA” value is at most 0.2.

Regarding GNDP, the “one-hybrid fitness for binding NBS DNA” value was at most 0.2.

In the case of NSPR, the “one-hybrid fitness for binding NBS DNA” value was at most 0.2.

As to RRSG, the “one-hybrid fitness for binding NBS DNA” value was 0.338.

In the case of SGMT, the “one-hybrid fitness for binding NBS DNA” value was at most 0.2.

With IHSS, the “one-hybrid fitness for binding NBS DNA” value was at most 0.2.

With CQRG, the “one-hybrid fitness for binding NBS DNA” value is at most 0.2.

As for LEDE, the “one-hybrid fitness for binding NBS DNA” value was at most 0.2.

For the variant MWPG, the “one-hybrid fitness for binding NBS DNA” value is at most 0.2.

Consider GLRQ, for which the “one-hybrid fitness for binding NBS DNA” value is at most 0.2.

Regarding MFDN, the “one-hybrid fitness for binding NBS DNA” value was at most 0.2.

Regarding QPHH, the “one-hybrid fitness for binding NBS DNA” value was at most 0.2.
